# In the supplement of paper PMC11417369:
# ± gives the standard deviation of the averaged measurements. Some of the results follow.
# System: PfAP2-EXP AP2 domain (GST-tagged)
# Assay: gcPBM binding intensity (ln(normalized median fluorescence intensity)); higher = stronger DNA binding
# Outline: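 GST-tagged P. falciparum DNA-binding domains produced in E. coli were incubated for 1 h on an Agilent 4 × 180k array of primer-extended double-stranded 36-bp intergenic genomic probes with negative controls. Binding intensity is the highest Masliner-normalised natural-log median intensity across replicate spots of either probe orientation, with bound protein detected by Alexa488 anti-GST antibody at 488 nm.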
row,Sequence,gcPBM binding intensity (ln)
1,TTAGATATTATTATATGTACATATTATATGTATTAT [XGTACX_site3836],8.48 ± 0.35
2,ATAATATATTTATAAACACACAAAAAAAGTTATATA [CACACA_site6831],8.6 ± 0.47
3,TGTATATGAAAAAATAGTACTCATATAAATATCTTT [XGTACX_site6542],8.36 ± 0.45
4,TTTTTTATTCCATAATATAATATGTTTTGAAATTTG [GTGCAC_negctrl_site440],8.27 ± 0.33
5,ATATACATATCAATGTAATATTATATACTTTTTTAG [CACACA_negctrl_site816],8.14 ± 0.33
6,ATATAATTATATTCCATACACACATATATTTAAAGG [CACACA_site2958],8.54 ± 0.41
7,AAAAAAATAAATAAATGTACATATATAAAACATTGT [XGTACX_site2136],8.87 ± 0.33
8,AAACGAGAACATAATAAATACATAAATAAATAAATA [GTGCAC_negctrl_site433],8.81 ± 0.23
9,TATATACACGCACATACACACAAATAAAAAAACACC [CACACA_site7578],9.26 ± 0.26
10,TGTGTTGTAATTAAAACACACATGAAAAAATTAAAA [CACACA_site51],8.59 ± 0.53
11,GTATTATTCTATAGAAGTACAGTATATTATTATTTA [XGTACX_site5073],8.47 ± 0.16
12,TACAACAAGTAATGGTGTACATTATATTATGTAATA [XGTACX_site1194],8.39 ± 0.3
13,TATAACAATTTTTATGCATGCGACTATAATATTTTT [TGCATGCA_site508],9.32 ± 0.27
14,TACATATTGAATAAGACACACATATATATATATATA [CACACA_site1878],10.1 ± 0.4
15,TAAGGATTGGTATAAAGTACAGGAGTAAATTGAAAA [XGTACX_site8525],8.84 ± 0.41
16,ATATTTTTTTTTTATTGTACCCTCATAAAAGAAAAG [XGTACX_site773],8.52 ± 0.4
17,CATACACATATATATTGTACACATATATGTATGTAT [XGTACX_site4030],8.45 ± 0.28
18,AATAAATATAAATACACACCCATATAAATATAAATA [CACACA_site7264],8.64 ± 0.51
19,ACAAAGATAAAACATAAAATATATCAAACATAAAAT [XGTACX_negctrl_site198],8.65 ± 0.28
20,AAAAAAAATACATGTTGTACGGTACAAATATAAAGT [XGTACX_site2863],9.16 ± 0.2
21,ATATATCTTCTTTGCACACTTAAAGGGAAGTGATAA [CACACA_site342],8.66 ± 0.18
22,AAAATAATAAAAAAAAAAAAAAAAAAAAAAAAGTAT [TGCATGCA_negctrl_site193],8.26 ± 0.62

row,Sequence,gcPBM binding intensity (ln)
1,AAATAAAATAAAACAACACACACGAATGTATAAATA [CACACA_site885],8.62 ± 0.45
2,AAAAAAATAATAAAATGTACAAATAAACACATAAAG [XGTACX_site5102],8.93 ± 0.41
3,TAATGTATCTAAAATTGTACAAATATAAATCTAAAT [XGTACX_site1197],8.48 ± 0.44
4,CGCGCCCAGAAACACACACACACACCGATATATATA [CACACA_site5250],8.66 ± 0.4
5,AGCAGGATTAAAAAAAGTACAAGAATTAATATTTAA [XGTACX_site3413],8.32 ± 0.5
6,TATATCTATAATATTACACACATATATTTATATTTT [CACACA_site7595],8.34 ± 0.3
7,ATTTTTTATTGTTATAAAAAAAAAATTAAACAATTA [CACACA_negctrl_site1077],8.19 ± 0.46
8,AATTATTATCCCCTCACACACAAAAATAAAAAGAAT [CACACA_site2885],9.06 ± 0.66
9,AAATTAAAGGCATAAAAGAAAATATTTAATAAAAAA [CACACA_negctrl_site1689],8.65 ± 0.4
10,AAAGAAAATAACAAAATTTTGAAAACATCACATTCG [CACACA_negctrl_site89],8.64 ± 0.46
11,ACCAGTTCTTAATACAAATATGTACATATATATATA [GTGCAC_negctrl_site56],9.74 ± 0.14
12,TTTTTTTTAATTGTGATACGTATATTATTTAATGAT [CACACA_negctrl_site38],8.49 ± 0.52
13,ATATATAATAAACAGGTGCATTGTTTTATTTTGTAT,8.67 ± 0.057
14,AAATTTAGGAACATTATATATATATATATATATATA [CACACA_negctrl_site862],10.1 ± 0.62
15,TATTCGTCTTTTTTCTCACACACCCTTTTTATTAAA [CACACA_site2508],9.06 ± 0.54
16,TATTTCATCTTATTTTAGGAAAAACTAATATATAAG [CACACA_negctrl_site1823],7.96 ± 0.44
17,TAAAAATAAAGAAAATGTACATAAATAATAATACAT [XGTACX_site2278],8.76 ± 0.25
18,GAACATTTGAAATATGCACACATGTATAAACCTACA [CACACA_site2654],8.61 ± 0.34
19,CAAAAAAAGGAAAAGATACACACCGTAAATTAAAAT [CACACA_site3612],8.7 ± 0.67
20,TGTGCATAATTTTGTGCACACCACGCTAATAATTTT [CACACA_site2915],8.73 ± 0.014
21,GGAATAAATAATATTATACACACGTATATTATTATA [CACACA_site2435],8.24 ± 0.33
22,AAGCTTTCATAAAGATGTACTTTTTAAAAATAATCT [XGTACX_site5725],8.28 ± 0.31

row,Sequence,gcPBM binding intensity (ln)
1,ACCTATTTATAATAGTGTACGTACAAATTTGTTTAC [XGTACX_site8176],8.83 ± 0.34
2,TTTTGTAAATATATATGTACATATATATATATATAT [XGTACX_site5803],10.1 ± 0.34
3,TTTTTCATGTTTATTAGTACATATATTAAGAATGGA [XGTACX_site3493],8.39 ± 0.44
4,AAAATAAAAAATTAATGTACTTAGAATTGTCACTAA [XGTACX_site1346],8.23 ± 0.33
5,TAAAATAATAAACAGAAGAAATCATTCATATAAAAA [XGTACX_negctrl_site502],8.55 ± 0.32
6,AATTTGTTGAAACACACACACACATACATATATATA [CACACA_site2287],8.8 ± 0.35
7,TGATATTATATATATACACACATGTATGTATATATA [CACACA_site1364],8.26 ± 0.44
8,ATAAATATATGATAAAGTACATATTTATATAATAAA [XGTACX_site7263],8.26 ± 0.3
9,ATGTATCTATATATATGTACACATATTTTAATTAAA [XGTACX_site3673],8.55 ± 0.3
10,ATATTTATTTATAATTGTACTAATAATATATTTTAA [XGTACX_site587],8.22 ± 0.31
11,TTTACATTAAATCACGCACACAAAAAAAAAAAAAAA [CACACA_site2418],8.31 ± 0.47
12,ATAGGTGAATACTAATATAAATTCAAGAGGGAAAAG [CACACA_negctrl_site720],8.53 ± 0.37
13,TATATATATATAATGTGTACATACTAAATAGAGGAC [XGTACX_site4153],9.98 ± 0.26
14,TAAATATAAAAATGCACACACACAAAAAAAAAAAAA [CACACA_site895],8.46 ± 0.5
15,GAAATGTATAAATCCATACACACATAAATTTTAATA [CACACA_site2364],8.3 ± 0.26
16,TTTGAATTTTTATATACACACATTATTATATTATAT [CACACA_site1593],8.51 ± 0.37
17,ATCTATGGAGCTTATACACACTTTTATATTTTAACA [CACACA_site5994],8.66 ± 0.41
18,TATTTATTTGTGGGGTGTACGAAATTTTTTTTTTTT [XGTACX_site5091],9.48 ± 0.75
19,AGAAATTAATCGAAGTGTACATATAAACATACATAT [XGTACX_site5518],8.68 ± 0.3
20,ATATTTTGTATAATCACACACACTATTCTTAAATAG [CACACA_site7270],8.32 ± 0.2
21,ATTATACATTTTAGATGTACATATTTTAAATTTAAT [XGTACX_site5174],8.57 ± 0.38
22,AACAAACAAACAAATATACACACTTTTGTATAAAGT [CACACA_site3509],8.49 ± 0.46

row,Sequence,gcPBM binding intensity (ln)
1,TAATCAATTCAATATTGTACGATATTTACCTTTAAA [XGTACX_site4678],8.89 ± 0.42
2,AAATGGGCTTATTTATGTACTTAAATATATCTACCC [XGTACX_site3823],8.55 ± 0.44
3,CCCACATAAAAAAATAAACACACATATGTATATATA [CACACA_site9040],8.97 ± 0.54
4,AACCTCGTGTAATATGCATGTTCCCTTCAAAGTTTT [TGCATGCA_site459],8.74 ± 0.42
5,TACATATATATATACACACATACATATATATACGCA [CACACA_site792],8.45 ± 0.34
6,AAAAAAATCTATATTACACACATATATACCTATATA [CACACA_site7464],8.14 ± 0.45
7,TACATTGTATACATATGTACACATATATATATATAT [XGTACX_site6174],10.1 ± 0.4
8,TATTTATGTTATAATTGTACAATAAACAAATTTTTT [XGTACX_site5306],8.39 ± 0.41
9,TATCTGTATTTGTATACACACAAATGTATTTATTTA [CACACA_site4830],8.57 ± 0.41
10,TACAATATTTCGAGCTTGCACTTTTATTAAGTAAAT,8.46 ± 0.36
11,TATACAGACAGACACACACACATATATAAATATGTA [CACACA_site6912],8.46 ± 0.42
12,ATTATTATTTTTAACTGTACATAGATATAGATATCC [XGTACX_site8714],8.53 ± 0.4
13,TAAGAAAAATATATATGTACACATATATATATATAT [XGTACX_site8542],9.97 ± 0.57
14,AACTTTTATACGGATACACACAAAAAAAAATAAAAA [CACACA_site6547],8.51 ± 0.6
15,TGTATGTTATATACAACACACAAAAAAAAACAAGTT [CACACA_site301],8.51 ± 0.55
16,TATTTAAAAGATGAAAGTACACATTTAATTACATTT [XGTACX_site3781],8.21 ± 0.38
17,ATGTGTATACTAAGAACACACAAGTTACTTGGTGTT [CACACA_site6864],8.43 ± 0.36
18,TATATTTAACATACTTTTTTTTTTTTTTTTTTTTTT [CACACA_negctrl_site938],8.995 ± 0.064
19,AGTCTTTTACATTGCACACACATTTCTTTCCTTTTG [CACACA_site2988],9.13 ± 0.53
20,AAAAAAAAAAAACATACACACAAGAACAAAATATGA [CACACA_site3002],8.82 ± 0.48
21,TACATATATCTATGTGTGCACTTATTTCCGGACAAA,9.18 ± 0.16
22,TAATTAGCATAATACACATGCATACATTTATATATA [TGCATGCA_site542],8.62 ± 0.32
